# According to PubChem BioAssay (NCI):
#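 All cell lines were grown in 96-well plates and treated with compound for 48 hours. GI50 is the concentration that inhibits growth by half. TGI: concentration producing complete growth inhibition.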
# Test system: NCI-H322M lung
# Assay: NCI tumour cell line growth inhibition, 48 h
Compound,GI50 [µM],TGI [µM]
N#Cc1nc(-c2ccc(F)cc2)oc1S(=O)(=O)N1CCOCC1,14.5,28.2
Cn1cc(C2=C(c3ccc(OC[C@@H](O)CO)cc3)C(=O)NC2=O)c2ccccc21,> 25,> 25
COc1ccc(/C=C(/C(=O)O)c2cc(OC)c(OC)c(OC)c2)cc1,–,> 100
Cc1ccc(C2=Nc3c(c(C)nn3-c3ccccc3)N=C(C(=O)O)C2)cc1,–,> 10
CCCCn1/c(=N/C(=S)N(C)C)ss/c1=N\C(=S)N(C)C,–,> 100
O=C1/C(=C/c2ccc([N+](=O)[O-])cc2)CNC/C1=C\c1ccc([N+](=O)[O-])cc1,–,> 100
Cc1cccc(C[C@@]2(SCc3ccccc3)C(C)(C)[C@@H]3CC[C@@]2(C)C3)n1,–,55.7
CCOc1ccc2nc(NC(=O)/C(CC(=O)CC(C3=C(O)c4ccccc4CC3=O)c3ccccc3)=N\O)sc2c1 (stereo not given),–,> 100
Cc1oc2nc(N(C)C)n3nnnc3c2c1C,–,> 100
Nc1ncnc2c1ncn2C(=O)NC12CC3CC(CC(C3)C1)C2,–,> 100
ClCc1ccccc1CSc1ncnc2nc[nH]c12,> 60,> 60
C/C(=N/NC(=S)Nc1cccc(C)c1)c1ccccn1,–,0.925
O=c1[nH]c(=O)n(C2CC(O)C(CO)O2)cc1C#Cc1c(F)c(F)c(F)c(F)c1F (stereo not given),–,> 100
O=C1c2ccccc2C(=O)c2c1ccc1[nH]c(CCl)nc21,11.2,23.3
NCCCC(N)C(=O)O (stereo not given),–,> 100
N#Cc1c(OCCF)c2ccccc2n2c1nc1ccccc12,–,> 100
CN(C)CCNC(=O)c1cccc2nc3c(Cl)cccc3nc12,–,44.6
CC1=C[C@@H]2Cc3occc3C(C)(C)[C@@H]2CC1,–,> 100
Cc1c(Cl)cccc1Nc1ncccc1C(=O)O,> 100,> 100
CCOC(=O)C(=O)N1C(C)=C(C(=O)OCC)CC(C(=O)OCC)=C1C,–,> 100
N#Cc1cnn2ccn(C3OC(COC(=O)c4ccccc4)C(OC(=O)c4ccccc4)C3OC(=O)c3ccccc3)c12 (stereo not given),–,> 31.6

Compound,GI50 [µM],TGI [µM]
COc1ccc(CNC(=O)COc2ccc(/C=N/Nc3nc4ccccc4s3)cc2)cc1,3.19,> 100
O=C1C(C=NCCc2c[nH]c3ccccc23)C(C(F)(F)F)=NN1c1nc2ccccc2s1 (stereo not given),–,95.9
O=C1/C(=C/c2ccc(F)cc2)CNC/C1=C\c1ccc(F)cc1,–,18
CCCNC(=O)OCc1c(COC(=O)NCCC)c(-c2ccc(Cl)c(Cl)c2)n2c1CCC2,–,39.7
S=C1NCCN1C1=Nc2ccccc2CO1,> 100,> 100
CCN1CCN(c2nc(NCCNc3ccnc4cc(Cl)ccc34)c3ccccc3n2)CC1,2.46,8.71
O=C1NC(=S)NC(=O)C1C(c1ccccc1[N+](=O)[O-])C1C(=O)NC(=S)NC1=O,–,> 100
CN(C)c1ccc2c(c1)oc(=O)c1ccccc12,–,27.9
CC1=C2[C@@H](CC1)[C@]1(C)O[C@@](C(C)C)(C[C@H]1OC(=O)[C@H](C)O)[C@H]2OC(=O)/C=C/c1ccccc1,17.2,35.6
C#CC(C)(C)Oc1cc(O)c2c(=O)c3ccccc3n(C)c2c1,–,> 100
C[C@@H]1Cc2c([nH]c3ccccc23)[C@@H](c2c(F)cc(/C=C/C(=O)O)cc2F)N1CC(C)(C)F,13.8,32
COC(=O)c1c(OC)cccc1C(=O)O,–,> 100
CN=C1NC(=O)/C(=C/c2ccc3ncccc3c2)S1,8.58,> 25
CO/N=C1/c2sccc2[C@H](NC(=O)CNC(=O)OC(C)(C)C)[C@@H]1O,–,> 100
CN1CCN(Cc2ccc(NC(=O)c3cncc(C#Cc4cnc(N)c5ccccc45)c3)cc2C(F)(F)F)CC1,0.273,0.833
NS(=O)(=O)c1ccc(-n2nc(-c3ccc(Br)cc3)ccc2=O)cc1,> 10,> 10
Clc1cccc(NC=Nc2ccc(-c3nc4ccccc4s3)cc2)c1,16.6,48.1
c1ccc2c(c1)CCCN1CCc3ccccc3C21 (stereo not given),–,> 100
O=C(O)CNC(=O)c1ccc([As](=O)(O)O)cc1,–,> 100
O=c1c2cc(I)ccc2[nH]c(=S)n1Cc1ccccc1,–,75.7
